The source gives no read counts; variants with many changes may rest on few reads.
B1: LINE1-full (parent)
chain: UACGUAGGUGGUUUUCCCCUGAUAGUGCUAAGGGGGCCUGGAAGUUUGGACUGGGCAGAGCUCAACACAGCGUGGCAAAGUGGCUGUGGCUAGACUGCCUCUCUGGAUUCCUCGUCACUCAGCAGGGCAUCUCUGAGAGAAAUGCC

Variants of: B1
Experiment: self-cleavage, relative activity (ratio to wild type); higher = more cleavage; in vitro, sequencing; the parent is a self-cleaving ribozyme

Variant | self-cleavage
U14C G36A U96A | 0.05
U14C G36U U130C C146U | 1.15
U14C G40A A42G C51U G114A | 1.74
U14C G44A A141G U143A | 0.83
U14C G48A A67G A141G | 0
U14C G49U U96G | 0.07
U14C G53U U132C U143A C146U | 1.65
U14C G54A G83A G126U | 0.08
U14C G60A A79G A121G A140G | 0.07
U14C G74A A124G U143A | 0.44
U14C G88C A136G | 0.13
U14C G89A A94G A124G | 0.13
U14C G93A C101A | 0.06
U14C G105A A121G | 1.65
U14C G106A A136G | 1.37
U14C G106C A141G | 1.35
U14C G114A C131U | 0.85
U14C G127U A142G | 1.41
U14C U15A A57U | 0
U14C U15A G105A A138G A141G | 0.71
U14C U15A U115C A136G | 1.35
U14C U15C A30G U115A | 1.11
U14C U15C A77U A79G C101A | 1.15
U14C U15C U52C | 1.9

Variant | self-cleavage
U14C U15C U85C | 0
U14C U15C U115A C120U | 1.34
U14C U20A A121G A141G | 0.68
U14C U20A G54A U96A | 0.08
U14C U20C A94U | 0.49
U14C U20C G72A A94G A136U | 0.33
U14C U20C U39A U130C | 0.42
U14C U20C U52G | 1.02
U14C U20C U119A A129U | 1.44
U14C U20G A129G U134C | 1.02
U14C U20G C56U A57U A124G A136G | 0.26
U14C U20G U62A A107G | 0.08
U14C U23C A30U A65G | 0.21
U14C U23C A31G A78G U143A | 1.47
U14C U23C A64U A69U A117C A141G | 0.24
U14C U23C A136G | 1.51
U14C U23C U29C A43G | 1.6
U14C U23C U39C G40U U47A | 0.74
U14C U23C U39C G58A A141G | 0.07
U14C U23C U81G A136G | 2.87
U14C U23C U132A | 0.92
U14C U26A C76A A138G | 0.57
U14C U26C C37U U104A A136G | 1.94
U14C U26C G27U | 0.89

Variant | self-cleavage
U14C U26C U29C U39A | 0.89
U14C U26C U46C U47C | 0
U14C U26C U85A A94G U119C | 0
U14C U26C U108C | 0
U14C U26G A64U A69U | 0.1
U14C U26G C71A U115C | 0.24
U14C U26G G27C U62G C84G A121U A140G | 0
U14C U29A U39C A138G | 1.72
U14C U29A U45C | 1.02
U14C U29A U46C A124G | 1.12
U14C U29C A43G C99U A141G | 1.31
U14C U29C A43G G88A U134C A140G | 0.04
U14C U29C A59U | 0.43
U14C U29C A78G | 0.87
U14C U29C A78G G86A | 0.25
U14C U29C A121G | 0.77
U14C U29C C37A U39A U109C A138G | 1.19
U14C U29C C51U C98U U134C | 0.47
U14C U29G U132A | 1.6
U14C U39A A59G | 0.09
U14C U39A A121G | 2.41
U14C U39A G82A C120A | 1.3
U14C U39A G97A | 0.22
U14C U39A U46C A78G | 1.36

Variant | self-cleavage
U14C U39C A57U U130C U132A | 0
U14C U39C A136G | 1.67
U14C U39C U100C G114C A140G | 1.57
U14C U45A A64G U96C | 0
U14C U45A A67G | 0.6
U14C U45C A77U | 0
U14C U45C A94U | 0.15
U14C U45C G54A A78G | 0.19
U14C U45C U46C | 1.4
U14C U45C U85C C101A U108C | 0.42
U14C U45C U87A A117G | 0.14
U14C U45C U100G | 1.41
U14C U45C U112A G114A U143C | 1.23
U14C U45C U119C A124G | 0.48
U14C U45G A142G | 1.31
U14C U46A A92G A94G | 0.11
U14C U46C A57C U91C | 0
U14C U46C A64G U87C A140G | 0
U14C U46C A65U U87A | 0.05
U14C U46C A117C | 1.38
U14C U46C G125U | 0
U14C U46C U62C | 0.13
U14C U46C U100C | 0.98
U14C U46C U100C U104C | 1.45

Variant | self-cleavage
U14C U46C U104C | 2.63
U14C U46G U62C A78G U85C | 0
U14C U47A A78G | 1.5
U14C U47A A142G | 1.16
U14C U47A U73C U100C | 0.33
U14C U47A U109A | 0.9
U14C U47C A50G | 1.84
U14C U47C A50U U81C | 0.68
U14C U47C A77G U112C | 1.41
U14C U47C U73A C116U | 1.2
U14C U47C U85C | 0.48
U14C U47C U85C C116A | 0.52
U14C U47C U87A | 0.17
U14C U47C U87C | 0.8
U14C U52A A136U | 1.5
U14C U52A U100A | 0.76
U14C U52A U100C U102A U134C A136U A140G | 2.63
U14C U52C A59G U62C U132C | 0
U14C U52C U62C U112C U143C | 0
U14C U52G A136U | 1.31
U14C U62A C146U | 0.14
U14C U62C C101U | 0.06
U14C U62G A92G G97A | 0.23
U14C U62G U130C | 0

Variant | self-cleavage
U14C U73A G122U | 1.03
U14C U73C C101A | 0.97
U14C U81A A94G U112C | 0.42
U14C U81A U85A | 0.17
U14C U85A U108C U130C U134A | 0.12
U14C U85C A138G | 0.44
U14C U85C U112A A124G | 0.27
U14C U87A A94G U104C | 0
U14C U87A A121G | 0.22
U14C U87A A136U A142G | 0.02
U14C U87A U100C C111U A138G | 0.11
U14C U87C A124G | 0.19
U14C U87C C123A | 0.31
U14C U87C G137A | 0.13
U14C U91C A107G G126A | 0.48
U14C U91G U108C | 0
U14C U96C U108C | 0.28
U14C U100C A117G | 0.84
U14C U100C A140G | 1.17
U14C U102C A136G | 0
U14C U104C A124G | 0.88
U14C U104C G126A | 2.15
U14C U108C A138G | 2.67
U14C U109C A140G | 0.36

Variant | self-cleavage
U14C U112C U115C | 1.58
U14C U112C U132C | 0.6
U14C U112C U134C | 1.31
U14C U115C U130C | 2.3
U14C U115C U134C | 0.97
U14C U132A G139A | 2.7
U14C U134G U143C | 2
U14G A22U A57U A59U U85C A124U | 0.23
U14G A22U U39C | 0.84
U14G A24G A69U | 0
U14G A30G A64U C99U C146U | 0.39
U14G A30U A31U U46A A65G U143C | 0.1
U14G A67U U104C | 0.28
U14G A78G A107G | 1.09
U14G C17A A77U | 0.38
U14G U15A G36A U52A A59U | 0.18
U14G U15C U39C U134G | 0.37
U14G U15C U130A | 1.72
U14G U29C A64C | 0.59
U14G U46A U102C | 0.68
U14G U46A U108C | 0.44
U14G U46A U112A A129G | 1.16
U14G U52C A129G | 1.67

Source: the RNAGym collection of RNA variant scans (doi:10.7554/elife.90254)
